Experimental data taken from the antibiotic and cytotoxicity screens of Wong et al. (2023).
This is one part of the list.

Assays:
HSkMC = human skeletal muscle cells; experiment: cytotoxicity call (relative viability < 0.9); details: 10 µM
HepG2 = experiment: cytotoxicity call (relative viability < 0.9); details: 10 µM
S. aureus RN4220 = experiment: growth inhibition call (relative growth <= 0.2); details: 50 µM

O=C(O)CN(CCN(CC(=O)O)CC(=O)O)CC(=O)O.[Na+].[Na+]
inactive: cytotoxicity call (HSkMC) | cytotoxicity call (HepG2) | growth inhibition call (S. aureus RN4220)

C[C@H]1CN([C@@H](C)CO)C(=O)c2cc(NS(=O)(=O)c3ccc(F)cc3)ccc2O[C@@H]1CN(C)S(=O)(=O)c1cccs1
inactive: cytotoxicity call (HSkMC) | cytotoxicity call (HepG2) | growth inhibition call (S. aureus RN4220)

C[C@H](CO)N1C[C@H](C)[C@H](CN(C)C(=O)Nc2ccc(C(F)(F)F)cc2)Oc2ccc(NC(=O)Cc3cn(C)c4ccccc34)cc2CC1=O
inactive: cytotoxicity call (HSkMC) | cytotoxicity call (HepG2) | growth inhibition call (S. aureus RN4220)
